Series [1] concerns male wistar rats. The series is described as follows: Toxicity test, oral administration for four days. The conditions noted are these: 100 mg/kg/day orally for four days.
The target in series [2] is T1, PDE type V (Canis lupus familiaris, UniProt O77746).
T1 construct: By elution with a sodium chloride gradient (0 - 0.4 M), PDE types V and III were separated from the other isozymes; from tissue; host or cells: canine aorta
The series is described as follows: PDE inhibiting activity, type V. The format is biochemical, dog. The conditions noted are these: PDE purified from canine aorta; 1 µM substrate cGMP or cAMP; read-out: Inhibition Activity IC50 (µM) Type V.

The test system of series [3] is PDE type I. The series is described as follows: PDE inhibiting activity, type I. The format is biochemical, dog. The conditions noted are these: PDE purified from canine aorta; 1 µM substrate cGMP or cAMP; read-out: Inhibition Activity IC50 (µM) Type I. On the procedure: On the basis of the method of Lugnier et al. (Biochem. Pharmacol., 35, 1743-1751, 1986), PDE was purified from the aorta in a dog. The canine aorta was minced and homogenized with a Waring Blender and a glass homogenizer in six volumes of a Tris-HCl buffer solution (pH 7.5, 20 mM) containing 2 mM magnesium acetate, 5 mM ethylenediaminetetraacetic acid (EDTA), 100 µg/mL of phenylmethylsulforyl fluoride and 15 mM 2-mercaptoethanol (2-ME), and centrifuged at 1200 x g for 30 min. The supernatant was separated and salted out with ammonium sulfate which was added to 45% saturation. The resulting precipitated fraction was resuspended in a Tris-HCl buffer solution (pH 7.5, 20 mM) containing 2 mM magnesium acetate and 1 mM 2-ME, dialyzed overnight and applied to a DEAE-trisacryl column (DEAE […] M:IBF). By elution with a sodium chloride gradient (0 - 0.4 M), PDE types V and III were separated from the other isozymes. […]
The thus obtained PDE types V, III and I were measured for their activity in accordance with the method of Thompson et al. (Adv. Cyclic Nucleotide Res., 10, 69-72, 1979) and the method of Wells et al. (Biochim. Biophys. Acta, 384, 430-443, 1975). […] The activity of each test compound was determined as a percentage of the PDE activity measured when it was added as a dimethyl sulfoxide solution (DMSO) and its IC50 (50% inhibition concentration) was calculated by the probit method. […]

As for `O=c1ccn2c3ccc(Cl)cc3c3cccc1c32` [Example 44, 10-chloro-4H-pyrido[3,2,1-jk]carbazol-4-one], the “abnormal change in body weight and general symptoms” value in series [1] is listed as “no abnormal change”. Also, the dead case entry in series [1] (until the next morning of the completion of the administration) is given as “no dead case”.
On to `O=c1c(Cc2cccnc2)cn2c3cc(Br)ccc3c3cc(OCCCO)cc1c32` [Example 38, 9-bromo-2-(3-hydroxypropyloxy)-5-(3-pyridylmethyl)-4H-pyrido[3,2,1-jk]carbazol-4-one], for which, in series [1], the “abnormal change in body weight and general symptoms” value is on record as “no abnormal change”.
Consider `CC(C)(C)OC(=O)COc1cc2c(=O)c(Cc3cccnc3)cn3c4ccc(Br)cc4c(c1)c23` [Example 3, 10-bromo-2-t-butoxycarbonylmethyloxy-5-(3-pyridylmethyl)-4H-pyrido[3,2,1-jk]carbazol-4-one], for which the IC50 (as a rule, the point on the concentration scale where inhibition reaches its midpoint) in series [2] was 0.0075 µM; in series [3] it was > 30 µM.
As to `O=c1c(Cc2cccnc2)cn2c3cc(Br)ccc3c3cc(OCc4cccnc4)cc1c32` [Example 34, 9-bromo-5-(3-pyridylmethyl)-2-(3-pyridylmethyloxy)-4H-pyrido[3,2,1-jk]carbazol-4-one], the IC50 in series [2] worked out at 0.018 µM.
On to `Cc1cn2c3ccc(Br)cc3c3cc(OCC(=O)OC(C)(C)C)cc(c1=O)c32` [Example 15, 10-bromo-2-t-butoxycarbonylmethyloxy-5-methyl-4H-pyrido[3,2,1-jk]carbazol-4-one], for which the IC50 in series [2] was 0.0015 µM; in series [3] it was > 30 µM.

Values taken from EP0992240A1, “THERAPEUTIC AGENT FOR ERECTION FAILURE” (MOCHIDA PHARMACEUTICAL CO., LTD., priority 1997, dated 1998).
